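Where inhibition never reached the appropriate level, the endpoint shown equals the highest concentration tested. Otherwise, values were interpolated linearly from a five-concentration, 48-hour dose response in 96-well plates. Here, GI50 denotes the concentration required for 50% inhibition of growth. TGI denotes the concentration required for complete inhibition of growth.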

This assay deals with NCI-H322M lung. The experiment in a line: NCI-60 cell line screen, 48 h.
Take `Cc1ccc2c(n1)C(=O)C(Cl)=C(Nc1cccc(C)c1C)C2=O`: the GI50 was 2.13 µM and the TGI turned out to be 6.17 µM.

With `Cc1ccc(C(=O)Nc2ccc(CNCCN3CCOCC3)c(C(F)(F)F)c2)cc1C#Cc1cnc2cccnn12`, the GI50 was 3.42 µM and the TGI stood at 12 µM.

In the case of `Fc1ccc(-c2nc(C(Cl)Cl)nc3cc(-c4ccccc4)nn23)cc1`, the GI50 was 3.26 µM and the TGI worked out at 36 µM.

For the molecule `CS(=O)(=O)Nc1cc(-c2ccc3ncc(C#N)c(Nc4cccc(Cl)c4F)c3c2)cnc1Cl`, the GI50 was 0.65 µM and the TGI was 3.19 µM.

In the case of `CC(=O)OC[C@H]1OC(O)C=C[C@@H]1OC(C)=O` (some centres not stated), the GI50 is 136 µM and the TGI worked out at 456 µM.

Turning to `C#CCN(C)CCCOc1ccc(NC(=O)CCCCCCC(=O)NO)cc1Cl`, the GI50 was 1.89 µM and the TGI came to 30.2 µM.

For the origin of these results see PubChem BioAssay (NCI).
